The supplement of paper PMC12067230
The data scatter; read single values as rough.
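Also: [psi-pin-] Saccharomyces cerevisiae expressing SupN fusions, induced by 100 µM Cu2SO4, selected 7 d at 30 °C without adenine and uracil, scored by deep sequencing of output versus input.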

Assay: amyloid nucleation score relative to library mode (yeast Sup35 reporter selection) (log enrichment difference); higher = more amyloid nucleation; sequences are the first 22 residues of the Bri2 peptide extended by up to 12 random residues
Settings: random library (experiment): 1;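 active = nucleation score significantly above 0 at FDR 0.05; inactive = not significantly above 0 or absent from output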
In the case of EASNCFAIRHFENKFAVETLICEKSKLYSMGGSW, the amyloid nucleation score was “inactive”.
With EASNCFAIRHFENKFAVETLICEKVVSELTQVRA the amyloid nucleation score was “inactive”.
EASNCFAIRHFENKFAVETLICEKYRMRY gave an amyloid nucleation score of 3.98.
For EASNCFAIRHFENKFAVETLICELAVSKVMLRWV, the amyloid nucleation score was “inactive”.
With EASNCFAIRHFENKFAVETLICELCRGNDPTVER the amyloid nucleation score was “inactive”.
With EASNCFAIRHFENKFAVETLICELDYWWKYLTLG the amyloid nucleation score was “inactive”.
With EASNCFAIRHFENKFAVETLICELFCAWSASLRR the amyloid nucleation score was “inactive”.
EASNCFAIRHFENKFAVETLICELFRSSVAERRP showed an amyloid nucleation score of 2.12.
For EASNCFAIRHFENKFAVETLICELGLLWLSTEVA, the amyloid nucleation score was “inactive”.
In the case of EASNCFAIRHFENKFAVETLICELGQNLR, the amyloid nucleation score was “inactive”.
For EASNCFAIRHFENKFAVETLICELIFSCHILCSS, the amyloid nucleation score was “inactive”.
With EASNCFAIRHFENKFAVETLICELIGHAMSCRSA the amyloid nucleation score was “inactive”.
With EASNCFAIRHFENKFAVETLICELIVECVEKPMG the amyloid nucleation score was “inactive”.
Sequence EASNCFAIRHFENKFAVETLICELIYPSQVFARV has an amyloid nucleation score of -0.00976.
With EASNCFAIRHFENKFAVETLICELNSL the amyloid nucleation score was “inactive”.
For EASNCFAIRHFENKFAVETLICELPWL, the amyloid nucleation score was 5.11.
For EASNCFAIRHFENKFAVETLICELRLYVRCRSWG, the amyloid nucleation score was “inactive”.
With EASNCFAIRHFENKFAVETLICELSEPS the amyloid nucleation score was “inactive”.
In the case of EASNCFAIRHFENKFAVETLICELSFRWWSCRSY, the amyloid nucleation score was “inactive”.
With EASNCFAIRHFENKFAVETLICELSLSYTSRTLC the amyloid nucleation score was -0.239.
For EASNCFAIRHFENKFAVETLICELSRVRNTNSLG, the amyloid nucleation score was “inactive”.
In the case of EASNCFAIRHFENKFAVETLICELTCLEISRQGM, the amyloid nucleation score was 3.74.
EASNCFAIRHFENKFAVETLICELWLIEKLGFEG gave an amyloid nucleation score of -0.324.
For EASNCFAIRHFENKFAVETLICELYSWSRRVVRT, the amyloid nucleation score was “inactive”.
EASNCFAIRHFENKFAVETLICEMANMPR showed an amyloid nucleation score of 2.57.
EASNCFAIRHFENKFAVETLICEMAQKIWPFG gave an amyloid nucleation score of 3.72.
For EASNCFAIRHFENKFAVETLICEMCLD, the amyloid nucleation score was “inactive”.
In the case of EASNCFAIRHFENKFAVETLICEMGGAGADKEWV, the amyloid nucleation score was “inactive”.
In the case of EASNCFAIRHFENKFAVETLICEMGITIWFRGYL, the amyloid nucleation score was “inactive”.
In the case of EASNCFAIRHFENKFAVETLICEMGVTCHHIRRR, the amyloid nucleation score was 2.81.
With EASNCFAIRHFENKFAVETLICEMIGEVERPLCG the amyloid nucleation score was “inactive”.
With EASNCFAIRHFENKFAVETLICEMLE the amyloid nucleation score was “inactive”.
Sequence EASNCFAIRHFENKFAVETLICEMLERRY has an amyloid nucleation score of 3.4.
For EASNCFAIRHFENKFAVETLICEMLMCNSDPVLC, the amyloid nucleation score was “inactive”.
In the case of EASNCFAIRHFENKFAVETLICEMRQTAAGGRWV, the amyloid nucleation score was “inactive”.
With EASNCFAIRHFENKFAVETLICEMVTAFRRCETL the amyloid nucleation score was “inactive”.
For EASNCFAIRHFENKFAVETLICEMWKNAKGARCR, the amyloid nucleation score was “inactive”.
Work on EASNCFAIRHFENKFAVETLICENCTTSWPRSWG yielded an amyloid nucleation score of 2.61.
Sequence EASNCFAIRHFENKFAVETLICENFFIVVEACWH has an amyloid nucleation score of 4.41.
For EASNCFAIRHFENKFAVETLICENRRARPSSGGC, the amyloid nucleation score was “inactive”.
For EASNCFAIRHFENKFAVETLICENV, the amyloid nucleation score was 0.539.
With EASNCFAIRHFENKFAVETLICENVIRIHFQVHR the amyloid nucleation score was “inactive”.
With EASNCFAIRHFENKFAVETLICENWMQVGSKLQC the amyloid nucleation score was “inactive”.
In the case of EASNCFAIRHFENKFAVETLICEP, the amyloid nucleation score was “inactive”.
For EASNCFAIRHFENKFAVETLICEPCMRPYLSARR, the amyloid nucleation score was “inactive”.
With EASNCFAIRHFENKFAVETLICEPDASSVILAQW the amyloid nucleation score was “inactive”.
For EASNCFAIRHFENKFAVETLICEPFEARVFCLGW, the amyloid nucleation score was 5.65.
For EASNCFAIRHFENKFAVETLICEPGGVMAERGAR, the amyloid nucleation score was “inactive”.
EASNCFAIRHFENKFAVETLICEPGIRIYGRVIA showed an amyloid nucleation score of 2.64.
With EASNCFAIRHFENKFAVETLICEPLSKRNRMFDD the amyloid nucleation score was “inactive”.
With EASNCFAIRHFENKFAVETLICEPNRYSRGLVGF the amyloid nucleation score was “inactive”.
In the case of EASNCFAIRHFENKFAVETLICEPSMGFGCGVDG, the amyloid nucleation score was 5.56.
In the case of EASNCFAIRHFENKFAVETLICEPSRIGRLFGEG, the amyloid nucleation score was “inactive”.
For EASNCFAIRHFENKFAVETLICEQAW, the amyloid nucleation score was “inactive”.
EASNCFAIRHFENKFAVETLICEQFVASYAGARR gave an amyloid nucleation score of 8.17.

Same assay, conditions: random library (experiment): 2
In the case of EASNCFAIRHFENKFAVETLICEKVYPVFSFLLG, the amyloid nucleation score was 5.46.
In the case of EASNCFAIRHFENKFAVETLICELCVCRLRNASA, the amyloid nucleation score was 4.53.
Sequence EASNCFAIRHFENKFAVETLICELDLSKSSYFGW has an amyloid nucleation score of 3.28.
With EASNCFAIRHFENKFAVETLICELGSSSSLLGLG the amyloid nucleation score was “inactive”.
In the case of EASNCFAIRHFENKFAVETLICELHGGTGYYNVM, the amyloid nucleation score was 0.836.
In the case of EASNCFAIRHFENKFAVETLICELIMGAILRSGK, the amyloid nucleation score was “inactive”.
EASNCFAIRHFENKFAVETLICELKF showed an amyloid nucleation score of 2.63.
With EASNCFAIRHFENKFAVETLICELLGRKALLGTG the amyloid nucleation score was “inactive”.
Sequence EASNCFAIRHFENKFAVETLICELLNYSVCQEGA has an amyloid nucleation score of 1.37.
In the case of EASNCFAIRHFENKFAVETLICELLRDNNTPRVK, the amyloid nucleation score was “inactive”.
For EASNCFAIRHFENKFAVETLICELLSWFGLNAIS, the amyloid nucleation score was “inactive”.
For EASNCFAIRHFENKFAVETLICELNNFIFHSAEL, the amyloid nucleation score was 7.7.
For EASNCFAIRHFENKFAVETLICELPILLYLCIW, the amyloid nucleation score was “inactive”.
With EASNCFAIRHFENKFAVETLICELSERCS the amyloid nucleation score was -0.519.
For EASNCFAIRHFENKFAVETLICELSLNRMNKILL, the amyloid nucleation score was 0.357.
With EASNCFAIRHFENKFAVETLICELTYWFSICWTS the amyloid nucleation score was “inactive”.
For EASNCFAIRHFENKFAVETLICELVDALVNGELS, the amyloid nucleation score was “inactive”.
EASNCFAIRHFENKFAVETLICELVLSFGSVNMN showed an amyloid nucleation score of 4.47.
In the case of EASNCFAIRHFENKFAVETLICELVSREALSV, the amyloid nucleation score was “inactive”.
For EASNCFAIRHFENKFAVETLICEMLCFIRYADGR, the amyloid nucleation score was “inactive”.
In the case of EASNCFAIRHFENKFAVETLICEMNINLALTVSM, the amyloid nucleation score was 3.37.
In the case of EASNCFAIRHFENKFAVETLICEMNTYDMGIY, the amyloid nucleation score was “inactive”.
Work on EASNCFAIRHFENKFAVETLICEMYLFMPPFVLN yielded an amyloid nucleation score of 4.39.
For EASNCFAIRHFENKFAVETLICENAFRTRVILSQ, the amyloid nucleation score was “inactive”.
EASNCFAIRHFENKFAVETLICENFIKNEVRI gave an amyloid nucleation score of 8.84.
With EASNCFAIRHFENKFAVETLICENNKGLCLMGSV the amyloid nucleation score was “inactive”.
For EASNCFAIRHFENKFAVETLICENSYSFFVVQVY, the amyloid nucleation score was “inactive”.
For EASNCFAIRHFENKFAVETLICEPHALT, the amyloid nucleation score was “inactive”.
In the case of EASNCFAIRHFENKFAVETLICEPLVAYVYMLVF, the amyloid nucleation score was “inactive”.
With EASNCFAIRHFENKFAVETLICEPSMLSVDDMFV the amyloid nucleation score was “inactive”.
For EASNCFAIRHFENKFAVETLICEPV, the amyloid nucleation score was “inactive”.
In the case of EASNCFAIRHFENKFAVETLICEPWIIFTHLMSR, the amyloid nucleation score was “inactive”.
For EASNCFAIRHFENKFAVETLICEPYDCGRKTVGL, the amyloid nucleation score was “inactive”.
For EASNCFAIRHFENKFAVETLICEQFCLSGEDVIG, the amyloid nucleation score was “inactive”.

Same assay, conditions: random library (experiment): 3
For EASNCFAIRHFENKFAVETLICELAKAVTRSR, the amyloid nucleation score was “inactive”.
For EASNCFAIRHFENKFAVETLICELAPSKDRGSYW, the amyloid nucleation score was “inactive”.
With EASNCFAIRHFENKFAVETLICELGSTCSVSSGL the amyloid nucleation score was “inactive”.
With EASNCFAIRHFENKFAVETLICELNGHG the amyloid nucleation score was “inactive”.
With EASNCFAIRHFENKFAVETLICELNWVLMLCSWR the amyloid nucleation score was “inactive”.
For EASNCFAIRHFENKFAVETLICELQGHWPHVLYW, the amyloid nucleation score was “inactive”.
With EASNCFAIRHFENKFAVETLICELRLPGALTRQE the amyloid nucleation score was 3.42.
For EASNCFAIRHFENKFAVETLICELRNSAWGVFRV, the amyloid nucleation score was “inactive”.
For EASNCFAIRHFENKFAVETLICELSM, the amyloid nucleation score was “inactive”.
For EASNCFAIRHFENKFAVETLICELSRTGFFRVSL, the amyloid nucleation score was “inactive”.
For EASNCFAIRHFENKFAVETLICELSSARDLLRYM, the amyloid nucleation score was “inactive”.
EASNCFAIRHFENKFAVETLICELWSYDSASRRL gave an amyloid nucleation score of 5.11.
In the case of EASNCFAIRHFENKFAVETLICELYEFRKYHSPS, the amyloid nucleation score was “inactive”.
Sequence EASNCFAIRHFENKFAVETLICELYFT has an amyloid nucleation score of 3.62.
For EASNCFAIRHFENKFAVETLICELYMEVGEPQTV, the amyloid nucleation score was “inactive”.
With EASNCFAIRHFENKFAVETLICEMGLPPTATREQ the amyloid nucleation score was “inactive”.
For EASNCFAIRHFENKFAVETLICEMLINSLLSLPV, the amyloid nucleation score was “inactive”.
For EASNCFAIRHFENKFAVETLICEMRSKCCHRGGR, the amyloid nucleation score was 3.42.
For EASNCFAIRHFENKFAVETLICEMTWMKG, the amyloid nucleation score was “inactive”.
For EASNCFAIRHFENKFAVETLICEN, the amyloid nucleation score was “inactive”.
For EASNCFAIRHFENKFAVETLICEPCQCRYCLTAN, the amyloid nucleation score was “inactive”.
With EASNCFAIRHFENKFAVETLICEPLWHSSRTKVS the amyloid nucleation score was “inactive”.
With EASNCFAIRHFENKFAVETLICEPMANNLMGK the amyloid nucleation score was “inactive”.
In the case of EASNCFAIRHFENKFAVETLICEPNRLQRLFWES, the amyloid nucleation score was “inactive”.
For EASNCFAIRHFENKFAVETLICEPQTSDGARPVR, the amyloid nucleation score was “inactive”.
In the case of EASNCFAIRHFENKFAVETLICEQCLGHPRLVVT, the amyloid nucleation score was “inactive”.
In the case of EASNCFAIRHFENKFAVETLICEQFGRYVAVSQW, the amyloid nucleation score was “inactive”.
For EASNCFAIRHFENKFAVETLICEQHELAFLRYLL, the amyloid nucleation score was “inactive”.
With EASNCFAIRHFENKFAVETLICEQKVG the amyloid nucleation score was “inactive”.
